Laboratory results reported in PubChem BioAssay AID1347165 (National Center for Advancing Translational Sciences (NCATS), 2019).
About 5,700 (2.6%) of roughly 220,000 compounds were called active. Inconclusive results, whose numbers are uncertain, are shown with a selection of clear calls. The call rests on the fitted dose curve; in most records, active means well fitted inhibition curve with a large enough effect; inconclusive means small, poorly fitted or top-dose-only effect; inactive means no such curve, though single readings can be large or run the other way. A potency beside an inconclusive call is a rough fit, not a confirmed value.
Further: nearly all actives have a fitted effect of over 70% in size.
Potency means the concentration at half of the fitted maximal effect; tags describe the fitted curve by direction and shape.
Wherever activity change, negative = inhibition is given: 0% is about no effect.

These compounds were tested against Lysine-specific demethylase 5B (Homo sapiens) (UniProt Q9UGL1) (assay: Primary screen for KDM5B Histone Demethylases FDH-coupled qHTS). Conditions: FDH-coupled NADH fluorescence (FDH is formaldehyde dehydrogenase); activity change, negative = inhibition: at 57.7 µM (top of the series) unless noted.
Chain of UniProt Q9UGL1 (Q9UGL1 whole entry, looked up): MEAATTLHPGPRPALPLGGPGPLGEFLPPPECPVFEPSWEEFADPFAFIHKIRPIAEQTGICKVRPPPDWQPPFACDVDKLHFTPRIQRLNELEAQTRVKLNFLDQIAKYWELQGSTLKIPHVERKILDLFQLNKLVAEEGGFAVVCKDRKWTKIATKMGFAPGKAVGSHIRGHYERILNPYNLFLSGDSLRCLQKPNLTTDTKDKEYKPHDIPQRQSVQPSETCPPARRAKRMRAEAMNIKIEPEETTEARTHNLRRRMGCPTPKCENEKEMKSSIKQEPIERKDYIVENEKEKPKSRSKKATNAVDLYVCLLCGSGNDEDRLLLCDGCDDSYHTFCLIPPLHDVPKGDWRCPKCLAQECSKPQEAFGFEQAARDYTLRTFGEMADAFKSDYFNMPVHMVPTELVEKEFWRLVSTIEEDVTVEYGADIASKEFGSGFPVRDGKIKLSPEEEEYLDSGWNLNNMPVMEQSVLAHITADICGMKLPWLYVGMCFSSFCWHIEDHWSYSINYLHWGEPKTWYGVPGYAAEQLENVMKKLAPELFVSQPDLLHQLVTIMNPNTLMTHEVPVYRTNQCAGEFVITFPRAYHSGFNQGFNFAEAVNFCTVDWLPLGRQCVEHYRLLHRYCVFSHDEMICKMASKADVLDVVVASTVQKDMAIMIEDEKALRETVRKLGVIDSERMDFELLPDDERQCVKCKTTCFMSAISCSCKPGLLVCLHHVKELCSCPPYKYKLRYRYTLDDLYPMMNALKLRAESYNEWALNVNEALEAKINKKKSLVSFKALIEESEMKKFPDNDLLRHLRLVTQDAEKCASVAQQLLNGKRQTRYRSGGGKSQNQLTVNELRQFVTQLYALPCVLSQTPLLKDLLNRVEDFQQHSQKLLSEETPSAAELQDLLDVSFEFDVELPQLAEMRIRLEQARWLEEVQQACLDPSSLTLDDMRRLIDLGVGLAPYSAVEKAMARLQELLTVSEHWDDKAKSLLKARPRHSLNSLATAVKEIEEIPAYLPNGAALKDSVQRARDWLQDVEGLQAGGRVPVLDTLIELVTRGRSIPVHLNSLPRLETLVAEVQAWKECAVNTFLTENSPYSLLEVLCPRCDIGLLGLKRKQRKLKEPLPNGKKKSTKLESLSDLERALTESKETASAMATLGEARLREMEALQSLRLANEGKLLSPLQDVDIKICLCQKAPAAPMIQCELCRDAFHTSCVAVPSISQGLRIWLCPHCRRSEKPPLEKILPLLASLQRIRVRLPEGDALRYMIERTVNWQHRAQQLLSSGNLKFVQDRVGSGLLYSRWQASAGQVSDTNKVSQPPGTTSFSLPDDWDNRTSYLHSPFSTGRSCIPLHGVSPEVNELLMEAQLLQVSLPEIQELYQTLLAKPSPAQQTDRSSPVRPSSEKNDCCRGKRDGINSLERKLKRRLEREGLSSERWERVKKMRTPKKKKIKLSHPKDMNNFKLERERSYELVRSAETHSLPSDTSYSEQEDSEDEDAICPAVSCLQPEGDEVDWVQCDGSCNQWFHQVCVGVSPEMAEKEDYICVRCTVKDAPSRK
Method in brief: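 Here, H3K4me3 peptide (12.5 µM in substrate mix) is demethylated by KDM5BΔAP, 200 nM final, after 10 min compound exposure. Formaldehyde product is coupled through FDH (0.25 U/mL in mix) to NADH fluorescence; 30-min ΔRFU feeds dose-response curves.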
For `Cc1noc(C)c1-c1cc2cc(CNC(C)C)oc2c(NC2CCN(C)CC2)n1`, the Potency was “inactive”. In the case of `Cc1cc(C(=O)C2CC(=O)Nc3c2c(C)nn3-c2ccc(F)cc2F)c(C)s1` (stereo unspecified), the Potency is reported as “inactive”. With `CC(=O)c1cc(-c2ccc(F)cc2)n(CCC(=O)NCc2ccc(C)cc2)c1C` the Potency was inconclusive: 15.8 µM [inhibitor, partial curve, poor fit]. In the case of `Cc1cc(=O)oc2cc(OC(=O)[C@@H](NC(=O)OC(C)(C)C)C(C)C)c(Cl)cc12`, the Potency is reported as inconclusive: 12.6 µM [inhibitor, partial curve, poor fit]. For `CC(=O)c1ccc(N2CCN(C(=O)Cn3ncc4c3-c3ccccc3OC4)CC2)cc1`, the Potency was inconclusive: 50.1 µM [inhibitor, single point]. With `COc1ccccc1/C=C/c1nc(C#N)c(NC(C)c2ccccc2)o1` (stereo unspecified) the Potency was inconclusive: 35.5 µM [inhibitor, partial curve, poor fit]. `COc1ccccc1-c1nc(N2CCOCC2)cc2c1CN(Cc1cnn(C)c1)C2=O` was tested, and the Potency was active: 35.5 µM. `COc1ccc(CCNC(=O)c2cccc3c(=O)c(C)c(-c4ccccc4)oc23)cc1OC` was tested, and the Potency was “inactive”. In the case of `COc1ccc2[nH]c(C(=O)NCc3cccnc3)c(C)c2c1`, the Potency is reported as inconclusive: 20 µM [inhibitor, partial curve, poor fit]. In the case of `Cn1nccc1C(=O)N[C@@H]1CN(c2ncccn2)C[C@H]1CO`, the Potency is reported as inconclusive: 17.8 µM [inhibitor, partial curve]. In the case of `C=C(C)COc1cccc(N)c1`, the Potency is reported as inconclusive: 20 µM [inhibitor, partial curve, poor fit]. For `c1ccc(CCN2CCNc3cc(NCc4cccnc4)ncc3C2)cc1`, the Potency was active: 35.5 µM. In the case of `CCn1ncc(CN2CCCN(Cc3ccncc3)C(c3ccccc3)CC(=O)NCC2)c1C` (stereo unspecified), the Potency is reported as inconclusive: 11.2 µM [inhibitor, partial curve, poor fit]. With `CCCN(C(=O)c1nn(-c2ccc(C)cc2)c(=O)c2c1c1ccccc1n2C)c1ccccc1C` the activity change, negative = inhibition was inconclusive: -33.6% [inhibitor]. With `COC[C@H]1CCCN1c1nc(CCN)nc2sc(C)c(C)c12` the Potency was inconclusive: 11.2 µM [inhibitor, partial curve]. For `Cc1ccsc1CN1CCCCCCNC(=O)CC1`, the Potency was inconclusive: 39.8 µM [inhibitor, single point]. For `CCOC(=O)c1c(NC(=O)c2ccc(S(=O)(=O)N(C)C)cc2)sc2c1CCN(C)C2`, the Potency was inconclusive: 25.1 µM [inhibitor, partial curve, poor fit]. For `COc1ccc(NC(=O)NCc2cccn2Cc2cccc(F)c2)cc1OC`, the Potency was “inactive”. For `Cc1cc(C(=O)N2CCCCC2)c2c(C3CCCN3)noc2n1` (stereo unspecified), the Potency was inconclusive: 50.1 µM [inhibitor, partial curve]. With `Cc1ccnc(NC(=O)c2cnc3ccccc3n2)c1` the Potency was “inactive”. For `Cc1cccc(Cn2cccc2CNC(=O)NC23CC4CC(CC(C4)C2)C3)c1`, the Potency was “inactive”. With `COc1cc(C)c2c(c1C)C[C@H](C(C)C(=O)NCc1cccs1)CC2` (stereo partly specified) the Potency was inconclusive: 28.2 µM [inhibitor, partial curve, poor fit]. With `CCNC(=O)c1ccc(N2CC3CC(C2)[C@H]2CCCC(=O)N2C3)nc1` (stereo partly specified) the Potency was inconclusive: 25.1 µM [inhibitor, single point]. `CCN(CCCNC(=O)c1cc2c(=O)[nH]c3ccc(C)cc3c2s1)Cc1ccccc1` was tested, and the Potency was inconclusive: 35.5 µM [inhibitor, partial curve, poor fit]. `O=C(c1ccc(F)cc1)N1CCCN(c2nc3ncccc3o2)CC1` was tested, and the Potency was inconclusive: 28.2 µM [inhibitor, partial curve, poor fit]. In the case of `Cc1nc([C@@H]2CN(C(=O)CCc3c[nH]c4ccccc34)C[C@H]2C(N)=O)n[nH]1`, the Potency is reported as “inactive”. With `O=C(NC1CCC(O)CC1)c1ccc(-c2ncc3cnc(-c4ccccc4)cn23)cc1` (stereo unspecified) the Potency was inconclusive: 35.5 µM [inhibitor, partial curve, poor fit]. In the case of `Cc1cccc(NC(=O)c2cc(-c3ccc[nH]3)n[nH]2)c1`, the Potency is reported as inconclusive: 25.1 µM [inhibitor, partial curve, poor fit]. `CCN(Cc1ccncc1)C(=O)CCC1CCN(S(=O)(=O)c2ccccc2)CC1` was tested, and the Potency was “inactive”. `Cc1ccc(-c2cc3c(=O)n(CCNC(=O)c4ccc5c(c4)OCO5)ccn3n2)cc1C` was tested, and the Potency was inconclusive: 14.1 µM [inhibitor, partial curve, poor fit]. In the case of `Cc1cccc(CNC(=O)c2ccc(Cn3c(SCc4ccccc4)nc4cccnc43)cc2)c1`, the Potency is reported as inconclusive: 35.5 µM [inhibitor, partial curve, poor fit]. For `Cc1ccc(NC(=O)Nc2ccccc2)c(=O)n1CC(=O)NCC1CCCO1` (stereo unspecified), the Potency was inconclusive: 22.4 µM [inhibitor, partial curve]. For `Cc1ccccc1S(=O)(=O)N1CCCC(CCC(=O)NCc2ccc(F)cc2)C1` (stereo unspecified), the Potency was inconclusive: 28.2 µM [inhibitor, partial curve, poor fit]. For `O=C(Oc1ccc2c(-c3cc4ccccc4oc3=O)cc(=O)oc2c1)N1CCOCC1`, the Potency was inconclusive: 39.8 µM [inhibitor, single point]. For `COCC1CN(C2CCC2)CC12CCN(C(=O)C(C)C)CC2` (stereo unspecified), the Potency was inconclusive: 15.8 µM [inhibitor, single point]. With `COc1ccccc1CNC(=O)CCC1N=C2c3ccccc3N=C(SCC(=O)NCCc3ccccc3)N2C1=O` (stereo unspecified) the Potency was inconclusive: 31.6 µM [inhibitor, partial curve, poor fit]. For `O=C(O)c1cc(Cl)cc(Cl)c1Br`, the Potency was “inactive”. `Cc1cnc(C(=O)N[C@@H]2CCC[C@@H]2C(=O)N2CCN(c3ccccn3)CC2)cn1` was tested, and the Potency was “inactive”. `CC(C)c1ccc(NC(=O)c2ccc(CSc3ccc(Cl)cc3)cc2)cc1` was tested, and the Potency was “inactive”. `COc1cccc(N2CCN(c3ncc4c(n3)CCN(Cc3ccc(Br)cc3)C4)CC2)c1` was tested, and the Potency was inconclusive: 25.1 µM [inhibitor, single point]. For `COCCNc1oc(COc2ccc(OC)cc2)nc1C#N`, the Potency was inconclusive: 22.4 µM [inhibitor, partial curve, poor fit]. For `Cc1ccc(Cn2c(=O)c3cccnc3n(Cc3ccc(F)cc3)c2=O)cc1`, the Potency was inconclusive: 39.8 µM [inhibitor, partial curve, poor fit]. `CN1c2cc(C(=O)NC3CCCC3)ccc2C(=O)N2CCCC21` (stereo unspecified) was tested, and the Potency was inconclusive: 28.2 µM [inhibitor, partial curve, poor fit]. In the case of `CNC(=O)CNC(=O)c1cc(-c2ccc(C)cc2)nc2ccccc12`, the Potency is reported as inconclusive: 22.4 µM [inhibitor, partial curve, poor fit]. In the case of `O=C(O)C1(Oc2ccc3ncccc3c2)CCN(Cc2ncc[nH]2)CC1`, the Potency is reported as inconclusive: 28.2 µM [inhibitor, partial curve, poor fit]. With `O=C(CSc1nnc(-c2ccc3c(c2)OCO3)o1)Nc1ccc2c(c1)OC1(CCCC1)O2` the Potency was inconclusive: 28.2 µM [inhibitor, single point]. With `Cc1cccc(Nc2nc3ccccc3n3c(N)nnc23)c1` the Potency was inconclusive: 22.4 µM [inhibitor, partial curve, poor fit]. For `CCc1ccc(C(=O)NCc2ccc(C#N)cc2)o1`, the Potency was “inactive”. In the case of `COc1ccc(NC(=O)Cc2ccc(N(Cc3ccc(C)cc3)C(=O)c3ccco3)cc2)cc1`, the Potency is reported as inconclusive: 14.1 µM [inhibitor, partial curve, poor fit]. In the case of `c1ccc2c(CNC3CC3)cccc2c1`, the Potency is reported as “inactive”. With `CN1[C@@H](CCC(=O)NCc2ccc(F)cc2)CNC(=O)[C@@H]2[C@H]1CCN2Cc1ccc(S(C)(=O)=O)cc1` the Potency was inconclusive: 20 µM [inhibitor, single point]. In the case of `Cn1ncc2c(C(=O)NCC3CC3)cc(-c3cccnc3)nc21`, the Potency is reported as active: 100 µM. For `COc1ccc(-c2nc(CSCC(=O)NC3CCC(C)CC3)c(C)o2)cc1OC` (stereo unspecified), the Potency was inconclusive: 39.8 µM [inhibitor, single point]. With `CN1c2cc(C(=O)NC3CCCCCC3)ccc2C(=O)N2CCCC21` (stereo unspecified) the Potency was inconclusive: 31.6 µM [inhibitor, partial curve, poor fit]. In the case of `COc1ccc(OC)c(NC(=O)CCc2c(C)nc3c(-c4ccccc4)c(C)nn3c2C)c1`, the Potency is reported as inconclusive: 20 µM [inhibitor, partial curve, poor fit]. For `CCOc1ccc(Nc2nc(-c3sc(NC(C)=O)nc3C)cs2)cc1`, the Potency was inconclusive: 39.8 µM [inhibitor, single point]. `CC(=O)c1c(C)[nH]c(C(=O)C(C)Sc2ccccc2Cl)c1C` (stereo unspecified) was tested, and the Potency was “inactive”. For `Cc1ccc(C(=O)NC2CC2)cc1NC(=O)NC1CCCC1`, the Potency was “inactive”. For `NC(=O)NC(c1ccc(Cl)cc1)c1ccccc1Cl` (stereo unspecified), the Potency was “inactive”. For `Cc1ccc(CNC(=O)c2ccc3c(c2)n(Cc2ccccc2)c(=O)c2ccnn23)o1`, the Potency was active: 31.6 µM. With `CO[C@H]1O[C@@H]2COC(c3ccccc3)O[C@H]2[C@@H]2OC(c3ccccc3)O[C@H]12` (stereo partly specified) the Potency was “inactive”. With `COCCN1C(=O)CO[C@H]2CN(Cc3cnc4ccccc4c3)C[C@H]21` the Potency was inconclusive: 44.7 µM [inhibitor, partial curve, poor fit]. `Cc1cc(C)c2c(n1)oc1c(=O)n(CC(=O)NC3CCCCC3)cnc12` was tested, and the Potency was “inactive”. `Cc1ccc(Nc2cc(-c3ccccc3)nc(C)n2)cc1` was tested, and the Potency was inconclusive: 35.5 µM [inhibitor, single point]. For `Clc1ccc2c(NCc3ccccn3)ccnc2c1`, the Potency was inconclusive: 25.1 µM [inhibitor, single point]. `c1ccc(Cc2nc(-c3ccc4c(c3)OCCCO4)cs2)cc1` was tested, and the Potency was “inactive”.
